Measurements: PubChem BioAssay AID686979 (National Center for Advancing Translational Sciences (NCATS), 2013)
Several values for one entry are separate records, joined by “and”; a condition that tells them apart may be missing. Identical values can stand only once. Hit rate of the full screen: of about 420,000 compounds, about 50,000 (12%) were called active. This list was built around the results that the source calls inconclusive (neither active nor inactive); the mix of calls is not that of the screen. Calls follow the shape of the dose curve; as a rule, active = well fitted inhibition curve with a large enough effect; inconclusive = small, poorly fitted or top-dose-only effect; inactive = flat fitted curve, though single readings scatter. A potency beside an inconclusive call is a rough fit, not a confirmed value.

assay: qHTS for Inhibitors of human tyrosyl-DNA phosphodiesterase 1 (TDP1): qHTS in cells in presence of CPT; details: chicken DT40 Tdp1-/-;hTDP1 cells + 20 nM CPT, ATP luminescence, 48 h; activity change, negative = growth inhibition: at 46.2 µM (top of the series); also: nearly all actives have a fitted effect of over 55% in size
Method in brief: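 Chicken DT40 Tdp1-/- cells stably complemented with human TDP1 were seeded at 400 cells/well in medium containing 20 nM camptothecin, exposed to pin-transferred compounds, and grown at 37 °C for at least 48 hr. Viability was read as ATP luminescence.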
% is scaled to controls: 0 for no effect and ±100 for the full control effect; potency is read from the fitted curve at half-maximal effect; tags tell the direction and shape of the fitted curve.

SMILES | Potency | activity change, negative = growth inhibition
O=[N+]([O-])c1cc(C(F)(F)F)ccc1NCC1CCCO1 (stereo unspecified) | inconclusive: 29.1 µM [inhibitor, single point] | –
COc1ccc(/C=N/N2C(=N)SCC2=O)cc1 | – | inactive: -14.6%
CCOC(=O)N1CCN(S(=O)(=O)c2ccc(C)c(C)c2C)CC1 | inconclusive: 23.1 µM [inhibitor, single point] | –
CCCCn1nnnc1C(c1ccccc1)N1CCN(c2ccccc2OC)CC1 (stereo unspecified) | inconclusive: 25.9 µM [inhibitor, single point] | –
O=C(c1cccc(F)c1)N1CCN(S(=O)(=O)c2ccc(C(F)(F)F)cc2)CC1 | – | inconclusive: -32.7% [inhibitor]
COc1cc2nc(N3CCCN(C)CC3)nc(OC3CCN(C)CC3)c2cc1OC | inconclusive: 35.5 µM [inhibitor, single point] | –
CCOc1ccccc1CNC(=O)Cn1ncn2nc(-c3cccs3)cc2c1=O | – | inactive: -0.0378%
Cc1cccc(S(=O)(=O)Nc2nc3ccccc3nc2NCC2CCCO2)c1 (stereo unspecified) | – | inactive: -10.4%
O=C(Nc1ccc(-c2noc(CCc3ccccc3)n2)cc1)c1cccnc1 | active: 18.4 µM | –
COc1ccc(OCCC(=O)OCC(=O)NCc2ccccc2)cc1 | – | inactive: 13.2%
Cc1ccc(C)c(CNC(=O)C2CCN(c3nc4ccccc4nc3C(F)(F)F)CC2)c1 | inconclusive: 10.3 µM [inhibitor, partial curve, poor fit] | –
COc1cccc(CN2CCC(C(=O)NC(C)c3cccc4ccccc34)CC2)c1 (stereo unspecified) | active: 23.1 µM | –
CCNc1ncc2nc(-c3ccc(F)cc3)c(=O)n(CCc3ccccc3)c2n1 | – | inactive: -3.03%
C[C@H](CO)N1C[C@H](C)[C@@H](CN(C)Cc2ccc(C(=O)Nc3ccccc3N)cc2)Oc2c(NC(=O)C3CCCCC3)cccc2C1=O | active: 14.6 µM | –
Cc1ccc(-n2c(C)cc(C(=O)CSc3n[nH]c(N)n3)c2C)cc1 | inconclusive: 23.1 µM [inhibitor, single point] | –
CC(C)N(C(=O)[C@H]1CC(CC(=O)NC(C)(C)C)C(=O)N2CCc3c([nH]c4ccccc34)[C@]12C)C(C)C (stereo partly specified) | inconclusive: 18.4 µM [inhibitor, single point] | –
O=C(N/N=C1\CCSc2ccc(F)cc21)c1cccnc1 | – | inactive: -10.1%
CCCc1[nH]nc2c1C(c1ccc(OC)c(Cn3nc(C)c(Br)c3C)c1)C(C#N)=C(N)O2 (stereo unspecified) | – | inactive: -4.2%
Cc1cc(C(=O)OCC(=O)NCCc2ccccc2)c2ccccc2n1 | – | inactive: -20.4%
C/C(=N/OC(=O)c1ccc(C)cc1)c1ccc(N2C(=O)C3CCCCC3C2=O)cc1 (stereo unspecified) | inconclusive: 23.1 µM [inhibitor, single point] | –
CC(C)(C)C(=O)O/N=C(\N)Cc1ccc(-c2csnn2)cc1 | inconclusive: 20.6 µM [inhibitor, single point] | –
Cc1[nH]c2ccccc2c1/C=N/Nc1nc(Nc2ccc(F)cc2)nc(N2CCOCC2)n1 | – | inactive: -21.2%
Cc1ccccc1NC(=S)Nc1ccccc1 | – | inactive: -6.15%
O=C(N/N=C/c1ccc2ncccc2c1)c1ccco1 | – | inactive: -7.25%

SMILES | Potency | activity change, negative = growth inhibition
CC(Sc1nnc(C(C)Oc2ccccc2F)o1)C(=O)NCc1ccc2c(c1)OCO2 (stereo unspecified) | – | inactive: -16.5%
O=C(CSc1nnc(CN2CCCC2)n1-c1ccccc1)c1ccc2c(c1)OCO2 | inconclusive: 29.1 µM [inhibitor, single point] | –
CC[C@@H](C)[C@H](CN[C@H](CNC)C(C)C)NC[C@@H](C)c1ccc(CC(C)C)cc1 | active: 1.46 µM | –
Brc1ccccc1Cn1cnc2ccccc21 | inconclusive: 29.1 µM [inhibitor, single point] | –
CC[C@H]1C(Nc2ccccc2)C[C@@H]2CCN3C(=O)CC[C@H]1[C@H]23 (stereo partly specified) | – | inactive: -17.4%
Oc1c(CN2CCOCC2)ccc(CN2CCOCC2)c1O | inconclusive: 29.1 µM [inhibitor, single point] | –
COCCNC(=O)C(C(=O)c1ccc(F)cc1)n1cc(C)ccc1=O (stereo unspecified) | – | inactive: 6.98%
COc1ccccc1/C=C/c1nc(S(=O)(=O)c2ccccc2)c(NCCN(C)C)o1 | inconclusive: 7.31 µM [inhibitor, partial curve] | –
COCCCn1cc(CN2CC(N(C)C)CS2(=O)=O)nn1 (stereo unspecified) | – | inactive: -6.4%
Oc1ccc(Br)cc1C=Nc1ccc2c3c(cccc13)CC2 | – | inactive: -3.04%
CCOCCn1c(CN(C)Cc2ccccc2)nc2c1c(=O)n(C)c(=O)n2C | inconclusive: 9.2 µM [inhibitor, partial curve, poor fit] | –
CCn1c(Cc2ccc(OC)cc2)nc2ccccc21 | inconclusive: 29.1 µM [inhibitor, single point] | –
Cc1nn(C)cc1C(C(=O)NC1CCCCC1)N(C(=O)Cc1cccs1)c1ccc(Cl)cc1 (stereo unspecified) | active: 2.91 µM | –
COc1ccc(-c2csc(N(Cc3ccccc3)C(=O)COc3ccc(Cl)cc3)n2)cc1 | active: 20.6 µM | –
O=C(O)c1cccc(N2C(=O)c3cccc4c(Cl)ccc(c34)C2=O)c1 | inconclusive: 29.1 µM [inhibitor, single point] | –
O=C(Nc1ccc2c(c1)OCO2)C1CC(=O)N(c2ccccc2)C1 (stereo unspecified) | – | inactive: -0.436%
CCOc1ccc(NC(=S)NC(=O)c2c(Br)cnn2C)c([N+](=O)[O-])c1 | active: 20.6 µM | –
Cn1c(CCN2CCCCC2)nc2cc(NS(=O)(=O)c3ccccc3)ccc21 | inconclusive: 14.6 µM [inhibitor, partial curve, poor fit] | –
CCN(CC)CCCNC(=O)c1ccc2nc(N3CCCCC3)sc2c1 | inconclusive: 23.1 µM [inhibitor, partial curve, poor fit] | –
COC(=O)c1[nH]c2ccc(Br)cc2c1NC(=O)CN1CCCc2ccccc21 | active: 20.6 µM | –
CN(c1ccccc1)S(=O)(=O)c1cccc(NC(=O)CSc2ncn[nH]2)c1 | active: 8.2 µM | –
CN1C[C@@H]2[C@@H]3C(=O)N(Cc4ccccc4)C(=O)[C@@H]3[C@](Cc3ccccc3)(C1=O)N2C(=O)c1ccc(Cl)c(Cl)c1 | inconclusive: 29.1 µM [inhibitor, single point] | –
O=C(CCCn1c(=S)[nH]c2cc3c(cc2c1=O)OCO3)N1CCN(c2ccccc2F)CC1 | inconclusive: 23.1 µM [inhibitor, single point] | –
O=C(Nc1ccncc1)c1ccc(NS(=O)(=O)c2cccc(F)c2)cc1 | inconclusive: 18.4 µM [inhibitor, single point] | –

SMILES | Potency | activity change, negative = growth inhibition
Cc1n[nH]c(C)c1S(=O)(=O)N1CCCC(C(=O)Nc2ccc(Br)cc2)C1 (stereo unspecified) | inconclusive: 29.1 µM [inhibitor, single point] | –
C1=C(c2ccc3c(c2)CN(Cc2cccn2-c2ncccn2)CCO3)Cc2ccccc21 | inconclusive: 0.82 µM [inhibitor, single point] | –
O=c1[nH]nc(CNc2cccc(C(F)(F)F)c2)c2ccccc12 | active: 25.9 µM | –
COc1ccc(CCNC(=O)c2cc(C)nc3c2c(C)nn3-c2ccc(C)cc2)cc1OC | inconclusive: 29.1 µM [inhibitor, single point] | –
CCn1c(SCC(=O)N2CCCC2)nnc1-c1ccc(S(=O)(=O)N2CCCCCC2)cc1 | inconclusive: 20.6 µM [inhibitor, single point] | –
Cc1cc(Nc2ccccc2C)nc(-n2nc(C)cc2C)n1 | active: 4.61 µM | –
O=C(CN(C(=O)CCC(=O)Nc1ccccn1)c1ccc2c(c1)OCO2)NCc1ccc(F)cc1 | – | inactive: -0.78%
CCOC(=O)c1nn(-c2ccc(F)cc2)c2nc(-c3ccccc3)c(C#N)c(=O)n12 | inconclusive: 18.4 µM [inhibitor, single point] | –
COc1cc(OC)c(N(C)S(=O)(=O)c2cccc(C(=O)OCC(=O)N3CCOCC3)c2)cc1Cl | inconclusive: 29.1 µM [inhibitor, single point] | –
CC(C)[C@@H](C(=O)N1CCCC1)N1C(=O)N2CCc3c([nH]c4ccccc34)[C@@]2(C)C1=O | – | inconclusive: -31.4% [inhibitor]
CCSc1nnc(NC(=O)CCC2CCCCC2)s1 | – | inactive: -5.79%
CCc1nnc(NC(=O)CN2CCN(C(=O)c3ccccc3)CC2)s1 | – | inactive: 14.3%
Cc1c(C(=O)N(Cc2cccc(Br)c2)C2CCS(=O)(=O)C2)oc2ccccc12 (stereo unspecified) | inconclusive: 20.6 µM [inhibitor, single point] | –
O=C(Cc1ccsc1)N1CCN(S(=O)(=O)c2cc(C(F)(F)F)cc(C(F)(F)F)c2)CC1 | – | inactive: -8.29%
O=C(NCCC1=CCCCC1)c1cc(S(=O)(=O)N2CCOCC2)ccc1Cl | inconclusive: 18.4 µM [inhibitor, single point] | –
C/C(=N\NC(=O)c1cccc(F)c1)c1ccc(Br)s1 | active: 5.62 µM | –
Cc1ccccc1NC(=S)Nc1cccc2cnccc12 | inconclusive: 29.1 µM [inhibitor, single point] | –
O=S1(=O)CC(N2CCCC2)CN1Cc1cn(Cc2cccc(C(F)(F)F)c2)nn1 (stereo unspecified) | – | inactive: -1.64%
CCOc1ccc(N(CC(=O)NC2CCCC2)C(=O)Cn2nnc(-c3ccc(C)o3)n2)cc1 | – | inconclusive: -30.3% [inhibitor]
CCCC[C@H]1COCCS(=O)(=O)N1Cc1ccc(Br)cc1 | inconclusive: 22.4 µM [inhibitor, single point] and inconclusive: 25.9 µM [inhibitor, single point] | –
CCCc1cc(=O)[nH]c(SCC(=O)c2c(N)n(CC(C)C)c(=O)n(C)c2=O)n1 | active: 7.31 µM | –
N#Cc1ccccc1-c1ccc2ncnc(NCc3cccnc3)c2c1 | inconclusive: 20.6 µM [inhibitor, single point] | –
N#CCCn1c(=O)cnc2cnc(N3CCOCC3)nc21 | inconclusive: 29.1 µM [inhibitor, single point] | –
